# Out of some 310,000 compounds screened, about 14,000 (4.5%) showed an effect of 50% or more. The effect is printed as a negative number. Some of the results follow.
# Target: human ether-à-go-go-related gene (hERG) potassium channel (human, UniProt Q12809)
# Test: primary screen, population patch clamp on CHO cells stably expressing hERG
# 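Further: peak tail current of the secondary pulse compared with the same well before compound.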
# human ether-à-go-go-related gene (hERG) potassium channel, sequence (Q12809 whole entry, looked up): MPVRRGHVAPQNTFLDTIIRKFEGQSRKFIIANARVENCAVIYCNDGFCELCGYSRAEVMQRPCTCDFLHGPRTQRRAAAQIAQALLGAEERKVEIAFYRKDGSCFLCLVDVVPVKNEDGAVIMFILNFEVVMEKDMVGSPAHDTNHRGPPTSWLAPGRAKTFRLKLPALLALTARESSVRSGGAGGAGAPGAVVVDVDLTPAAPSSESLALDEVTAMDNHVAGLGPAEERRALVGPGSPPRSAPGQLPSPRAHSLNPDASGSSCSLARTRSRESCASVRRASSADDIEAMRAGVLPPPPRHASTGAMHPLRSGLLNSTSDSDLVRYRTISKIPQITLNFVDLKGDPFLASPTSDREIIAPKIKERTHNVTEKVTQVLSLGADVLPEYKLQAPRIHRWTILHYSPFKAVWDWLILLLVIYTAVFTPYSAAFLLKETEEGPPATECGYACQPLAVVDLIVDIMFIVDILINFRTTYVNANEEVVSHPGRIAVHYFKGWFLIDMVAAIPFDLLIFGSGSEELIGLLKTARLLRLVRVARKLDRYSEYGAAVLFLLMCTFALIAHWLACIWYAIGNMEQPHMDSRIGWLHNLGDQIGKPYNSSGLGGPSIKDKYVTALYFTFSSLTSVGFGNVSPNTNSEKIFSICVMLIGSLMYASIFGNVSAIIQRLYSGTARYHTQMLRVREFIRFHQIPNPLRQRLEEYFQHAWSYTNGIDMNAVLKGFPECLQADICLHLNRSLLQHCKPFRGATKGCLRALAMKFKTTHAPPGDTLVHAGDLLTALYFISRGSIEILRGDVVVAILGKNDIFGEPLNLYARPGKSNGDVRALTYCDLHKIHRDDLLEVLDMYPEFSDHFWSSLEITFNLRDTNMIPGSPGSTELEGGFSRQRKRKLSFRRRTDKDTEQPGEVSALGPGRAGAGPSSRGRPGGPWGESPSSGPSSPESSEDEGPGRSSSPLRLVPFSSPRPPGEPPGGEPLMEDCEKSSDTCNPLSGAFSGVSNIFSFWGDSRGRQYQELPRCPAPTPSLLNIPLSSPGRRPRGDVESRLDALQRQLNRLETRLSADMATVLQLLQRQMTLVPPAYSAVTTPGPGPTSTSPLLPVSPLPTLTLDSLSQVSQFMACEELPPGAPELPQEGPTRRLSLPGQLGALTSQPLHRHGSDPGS
row,Compound,"hERG current change (%, negative = inhibition) at 10uM"
1,O=C(/C=C/c1cccc(Br)c1)N1CCN(c2ccccn2)CC1,-45.2%
2,CCOC(=O)NNc1ccc(C(F)(F)F)cn1,16.3%
3,CC1=C(c2ccc(F)cc2)[N+](=O)C(C)(C)N1[O-],17.7%
4,Cc1oc2ccc(OCc3c(F)cccc3Cl)cc2c1C(=O)O,18.5%
5,COc1ccc(-c2csc3ncnc(N4CCN(S(=O)(=O)c5ccc(Cl)s5)CC4)c23)cc1,-6.02%
6,O=C(/C=C/c1cccc([N+](=O)[O-])c1)c1ccc2c(c1)OCCO2,3.36%
7,O=C1CC(c2ccc(S(=O)(=O)NCCOc3ccccc3)cc2)CN1 (centres unmarked),9.42%
8,CCN(CC)S(=O)(=O)c1cccc(NC(=O)c2ccc(Br)cc2)c1,4.07%
9,COc1ccc(CCNC(=O)CS(=O)Cc2nc(-c3ccccc3Cl)oc2C)cc1OC (centres unmarked),-4.34%
10,COc1ccc(-n2ncc3c(=O)n(Cc4c(F)cccc4Cl)cnc32)cc1,16.3%
11,CSc1cccc(CN2CCCC(CO)(Cc3cccc(Cl)c3)C2)c1 (centres unmarked),-29%
12,Cc1cc(Br)cn2ccnc12,-6.51%
13,O=c1[nH]c(=S)[nH]c2c1C(c1ccc(Br)cc1)c1c([nH]c(=S)[nH]c1=O)O2,16.5%
14,COc1cccc(C(=O)O/N=C(\N)CS(=O)(=O)c2ccccc2)c1,11%
15,Cc1ccc(NC(=O)COC(=O)c2ccco2)cc1,-2.75%
16,Cc1cc(SCC#N)n2nc(C)c(-c3ccc(Cl)cc3)c2n1,24.9%
17,COc1ccc(Cc2nnc(NCCO)[nH]c2=O)cc1,16.5%
18,CCCN(CC(=O)Nc1ccc(NC(C)=O)cc1)CC(=O)Nc1ccc(F)c(F)c1F,9.97%
19,C#Cc1ccc(CN2CCN(CCc3ccccc3)C(CCO)C2)cc1 (centres unmarked),-58.8%
20,O=[N+]([O-])c1cc2c(cc1/C=N/n1c(-c3ccccc3)n[nH]c1=S)OCO2,10.8%
21,CCOC(=O)C1=C(N)Oc2cc(C)oc(=O)c2C12C(=O)N1c3c(cccc32)C(C)CC1(C)C (centres unmarked),-7.18%
22,Cc1ccccc1NC1=C(Cl)C(=O)OC1OC(C)C (centres unmarked),7.51%
23,COc1ccc(/C=C2/N=C(SC)NC2=O)cc1OC,6.4%

row,Compound,"hERG current change (%, negative = inhibition) at 10uM"
1,COc1ccc(S(=O)(=O)N(C)CC(=O)Nc2c(F)cccc2F)cc1,5.53%
2,COc1cccc(COc2ccc(N(C)S(=O)(=O)c3ccccc3)cc2)c1,3.08%
3,Cc1ccsc1C1Nc2ccc3ncccc3c2C2=C1C(=O)CC(C)(C)C2 (centres unmarked),-4.2%
4,Cc1cccc(NC(=O)CCSc2nncn2C)c1,27.4%
5,O=C(NNc1c2ccccc2nc2ccccc12)c1ccccc1Cl,2.94%
6,CCc1ccccc1NC(=O)Cn1nc(C)n2cccc2c1=O,1.74%
7,COC(=O)c1c(C)[nH]c(C(=O)COC(=O)Cc2ccc3c(c2)OCCO3)c1C,-24.3%
8,CN(C(=O)CSc1nnc(-c2cccs2)o1)C1CCS(=O)(=O)C1 (centres unmarked),4.67%
9,O=C(NCCCC1CCCC1)C1CCC(=O)N(Cc2ccc(Cl)cc2)C1 (centres unmarked),-61.4%
10,COc1ccc(CCNc2nc(-c3ccc(NC(C)=O)cc3)cs2)cc1OC,5.69%
11,CC(Nc1nc(-c2ccccc2)nc2ccccc12)c1ccccc1 (centres unmarked),3.47%
12,c1ccc(-c2nnc(SCCC3OCCCO3)o2)cc1,10.7%
13,COc1cccc(NC(=O)CN2C(=O)C3(OCCCO3)c3ccccc32)c1,0.626%
14,Cc1ccc(NC(=O)C2CCCN(S(=O)(=O)c3cnc[nH]3)C2)cc1C (centres unmarked),-4.88%
15,Clc1ccc(OCc2nc3ccccc3[nH]2)cc1,20.1%
16,CC(C)(C)C1CCC(OC(=O)c2ccncc2)CC1 (centres unmarked),-6.89%
17,Fc1ccccc1CN1CCN(c2ccc(Cl)cc2)CC1,1.71%
18,COc1ccc(COC(=O)c2nc3nc(C)cc(C)n3n2)cc1F,-3.65%
19,O=C(N/N=C/c1ccc(-c2cccc([N+](=O)[O-])c2)o1)c1cccs1,35.9%
20,CC(=O)c1c(O)cc(C)n(-c2ccc(F)cc2)c1=O,6.67%
21,COCCNC(=O)CSc1ccc(C)cc1,3.31%
22,CCn1c(O)c(N=NC(=O)CNC(=O)Cc2ccccc2)c2ccccc21,-12.4%
23,CC(C)(C)C(=O)NCCc1nc2ccccc2n1CC(=O)c1ccccc1,-2.84%

row,Compound,"hERG current change (%, negative = inhibition) at 10uM"
1,Cc1nn(Cc2ccccc2)c(C)c1C(=O)NCCCN1CCCC1=O,-6.35%
2,O=C(CNC(=O)c1ccc2c(c1)OCCO2)N/N=C/c1ccc(Cl)cc1,14.1%
3,CCOc1cc(Br)cc(/C=C2\SC(=Nc3ccccc3)NC2=O)c1O,25.8%
4,COc1ccc(CNC(C)C2COc3ccccc3O2)c(OC)c1.O=C(O)C(=O)O (centres unmarked),-63.2%
5,O=C(/C=C/c1ccc(F)cc1)NC(=S)NNC(=O)[C@H]1C[C@@H]1c1ccccc1,4.72%
6,COc1ccc(N2C(=O)CC(N3CCC(C(N)=O)CC3)C2=O)cc1 (centres unmarked),10.1%
7,CCOc1ccc(NC(=O)CSc2nc3c(c(=O)n2C)SC(C)C3)cc1 (centres unmarked),1.95%
8,CCN1CCN(c2oc(COc3ccc(-c4ccccc4)cc3)nc2C#N)CC1,-55.8%
9,O=C(COc1ccc(Cl)cc1)NNC(=O)C(=O)N1CCCCC1,-11.6%
10,O=C(CCn1c(=O)c2cccn2c2ccc(F)cc21)NCc1cccc(F)c1,23.4%
11,COc1cc(NC(=O)c2ccccc2)c(OC)cc1NC(=O)CN1C(=O)NC2(CCCCC2C)C1=O (centres unmarked),-49.8%
12,Cc1ccc(CSCc2ccc(C(=O)NC3CCCC3)o2)cc1,-18.2%
13,CCC(=NCCc1ccccc1)c1c(O)n(C2CCCCC2)c(=O)[nH]c1=O,-5.35%
14,CC(=O)NC(C)C12CC3CC(CC(C(=O)O)(C3)C1)C2 (centres unmarked),16.3%
15,CCOC(=O)N1CCN(C(=O)c2ccc(CNS(=O)(=O)c3ccc(C)cc3)cc2)CC1,-22.8%
16,NC(=O)c1ccccc1[N+](=O)[O-],12.9%
17,COc1ccc(Nc2cc(C(=O)NCc3ccccn3)c3ccccc3n2)c(OC)c1,8.79%
18,O=C(Cc1ccc(F)cc1)Nc1ccc(S(=O)(=O)N2CCCCC2)cc1,-4.48%
19,CCC(CC)C(=O)Nc1cccc(C(=O)NC(C)(C)C)c1,19.2%
20,O=C(COC(=O)c1cc(S(=O)(=O)N2CCCCC2)ccc1N1CCOCC1)NCCc1ccc(F)cc1,-25.5%
21,Cn1ncc(Br)c1NC(=O)c1cc(Cl)cc(Cl)c1,-11.4%
22,O=C(NCCC1=CCCCC1)c1ccc2c(=O)n3c(nc2c1)CCCCC3,-42.1%
23,CCOC(=O)c1cc2n(c1N)-c1ccccc1C2=O,-8.4%

row,Compound,"hERG current change (%, negative = inhibition) at 10uM"
1,O=C(NC(=S)Nc1ccccc1N1CCCC1)c1ccccc1Br,11.6%
2,O=[N+]([O-])c1cc(-c2ccc(/C=N\n3cnnc3)o2)cc([N+](=O)[O-])c1,-21.5%
3,C/C=C/C(=O)Nc1nnc(-c2ccccc2C)s1,-2.39%
4,CS(=O)(=O)N1CCC(Oc2cccc(C(=O)NCCCOc3cccnc3)c2)CC1,13.2%
5,O=C(COC(=O)/C(=C/c1cccs1)c1cccs1)NCc1ccccc1Cl,2.4%
6,CCOc1ccc(NC(=O)CSc2nnc(-c3ccncc3)n2CC2CCCO2)cc1 (centres unmarked),-10.6%
7,COc1cccc(NC(=O)Cc2cn(C)c3ccccc23)c1,-6.13%
8,Cc1c(C)c2ccc(OCC(=O)N[C@@H](Cc3ccccc3)C(=O)O)cc2oc1=O,18.3%
9,CCCc1ccc(-c2c(C)sc(NC(=O)c3ccnn3C)c2C#N)cc1,11.5%
10,Cc1cc(Oc2ccc(=O)n(C)n2)nc(=S)[nH]1,17.4%
11,CCCn1cc(SCC(=O)NC2CCCC2)c2ccccc21,-6.96%
12,Cl.O=C(CSC1=NCCN1)Nc1cccc(C(F)(F)F)c1,-28.5%
13,O=C(Cn1cnc2ccccc21)Nc1cccc([N+](=O)[O-])c1,12.5%
14,O=c1[nH]c(-c2ccccc2)c(-c2ccccc2)nc1[N+](=O)[O-],13.4%
15,NC(=O)Cc1cn(-c2ncc(C(F)(F)F)cc2Cl)c2ccccc12,-24.7%
16,COC(=O)c1cc(NC(=S)Nc2cc(Cl)cc(Cl)c2)cc(C(=O)OC)c1,-0.0139%
17,Cc1ccc(NC(=S)NCCCN2CCOCC2)cc1C,3.72%
18,CC(=O)NC1(c2ccccc2)CCN(c2cc(C)nc(-c3ccccc3)n2)CC1,-38.4%
19,COc1cccc(-c2nc3ccccc3c(=O)n2NC(=O)c2cccnc2Cl)c1,6.55%
20,COC(=O)c1cc(Nc2cc(C)c3c(O)cccc3n2)cc(C(=O)OC)c1,-21.7%

# From paper PMC4336329 (PLoS ONE, 2015)
